Reference: the supplement of paper PMC3334620
Whole data set: some 33,000 sequences, median “E-score (-0.5 to 0.5)” near -0.016, cut for the highest 2% near 0.31. This is one part of the list.

The sequences below were run against Cst6 (UniProt P40535) (assay: PBM E-score (8-mer binding enrichment) (E-score (-0.5 to 0.5)); higher = stronger / more preferred TF binding; most listed sequences are background and not binding sites). Settings: protein concentration: 200 nM; construct: GST-DNA-binding domain.
In short: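 Universal all-10-mer Agilent arrays, double-stranded by primer extension on fresh or once-stripped slides, were probed with about 100-200 nM GST-tagged yeast transcription factors made by PURExpress. Fluorescent anti-GST detected bound protein, and masliner normalised the scans. E-scores from the Universal PBM Analysis Suite were given to each ungapped eight-base word pooled with its reverse complement.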

Sequence	PBM E-score
ACCTAAGG	-0.081
ATTTTCGC	0.167
CTGGCACA	-0.162
AGTTGAAA	0.0658
CGTTTTGA	0.189
CCGACAAG	-0.0755
ATATGTGA	0.157
CCCTCTCC	-0.383
CCAGTGGA	-0.139
CATCTGCG	-0.146
AGATGCGA	-0.148
CTCCGGGA	-0.216
CCAAGAGA	-0.0809
TCGTGGAA	0.128
AAGAAGCC	0.115
CGAGATTA	0.167
GAGTAATA	0.23
ACATTACT	0.183
AGACTCTC	-0.289
CCATTAAC	0.163
TACCTAAA	0.14
GGGCGGAC	-0.365
CTGTGCGC	-0.0914
GTTGAAAC	0.0235
TGGCACAA	0.0795

Sequence	PBM E-score
ATAACTGA	0.107
CTTCACAC	0.0809
AGGTTCAA	0.0809
ATAGTAGG	0.0261
GTATCATA	0.256
ACGTCAGA	0.464
CGGTGAAG	-0.0753
AAGCCTTC	-0.216
CTGGACTC	-0.0699
GCCAAGCA	-0.133
ATAGCCCC	-0.277
CCATCAAA	0.04
CAGATCAA	-0.0995
CTAATACA	0.143
AAATAACA	0.24
GCACACGC	-0.0553
CCAGAAGC	-0.21
TAATCTAA	0.132
GATACGGC	0.139
AGTGGGAT	-0.0964
CCTTCCCA	0.0315
AAGACCCA	-0.229
CACCGTAG	-0.0487
ACTCCTAT	0.0574
CGCCCGCG	0.0669

Sequence	PBM E-score
CGGGTACA	-0.165
CGTTGGTC	-0.208
CCTTTCGC	-0.0224
CTACTCTC	-0.136
CCATCGCA	-0.104
GGCCTATA	-0.307
AATTTTAG	0.0947
AGTGCGGC	0.173
ATACGCTC	0.0633
ACGAGCAC	-0.0131
ACCTTCAA	-0.00754
CCATCTCA	-0.157
CAAGTCGC	-0.139
AGAAATTG	0.27
AGTGGACA	-0.0595
CGGGATAA	0.139
AGTTCAGG	-0.229
CACTAGAA	0.0702
CGAATTTC	0.116
CACCTCCG	-0.0809
ATCTAGCG	-0.191
CCTTTGGC	-0.225
CGCGTATA	0.00766
CGGATTAA	0.0742
GTCCGAAC	-0.0189

Sequence	PBM E-score
AGGGGCAC	-0.0879
CACAAACG	0.264
CCGTGGAC	-0.0572
CGAGGAGC	-0.0747
GCAACTAC	0.0528
CACGGGCC	-0.236
CACGACTA	-0.192
GCTAGCCA	-0.201
GTTACCGA	-0.0392
CTCTATGC	-0.114
TAGAACAA	-0.0259
AACAACTA	0.0393
TCCAGCGA	-0.202
TAGACCGA	-0.0348
CCTCATTC	-0.0459
GCCTAATA	-0.00299
ATGCGTCA	0.444
ATCGTATG	0.234
CTATAAAA	0.123
CCAACGAA	-0.00781
CTGAACCC	-0.201
GCGACAAC	0.127
AAGTAACC	0.0322
GTACTCCA	-0.115
GAATTCTA	0.162

Sequence	PBM E-score
GAAGTTCC	-0.244
CGAACCCC	-0.249
ATGTTGTC	0.209
AGGTGCGC	-0.0797
CACGACAC	-0.00941
CCACAAGA	-0.174
CCGGCGGC	-0.195
ATAGCATG	-0.0918
GGATAAAA	0.179
AGACACAC	0.0262
CGGAATTC	-0.00018
ACCGTGCC	0.0391
CTTATTAC	0.231
CCCGGGCG	-0.196
ACGTACTG	-0.0685
CACGTAGG	-0.0735
ACGTGCTC	-0.0826
CAGAAGCA	-0.0549
ACGGCTCA	0.197
ATACTAAC	0.0953
ACGTATCG	0.2
AGCGAGAA	-0.126
TCAACAGA	0.0545
CGCAGTGC	-0.133
ACGAGTAA	0.141

Sequence	PBM E-score
GCTCAGTA	0.138
ATACAGCG	0.0671
CTTATAAC	0.153
AAAGTTTG	0.156
CTACCCAC	-0.347
CTCGGCCA	-0.0895
ACAATTCA	0.0932
TCCTGTAA	0.107
ACACCTGC	0.0948
ATGTATTC	0.0111
ACCTACTG	-0.175
CTGCGAGA	-0.111
GATCACCC	-0.0947
ACTGCTGG	-0.324
CGTGCACC	-0.0078
CGTTACTC	-0.0496
CCGGTTAA	-0.171
CGCAGGTA	-0.129
AGCCGGAC	0.0913
GGGGAGAA	-0.161
CGCCCCCC	-0.347
ATTTATAC	0.294
AATTGGCC	-0.188
GCCTTCCA	-0.129
TATCATGA	0.186

Sequence	PBM E-score
GACCCGAC	-0.279
ACCTTATA	0.0371
CCAAACGG	-0.104
ACCTAGAA	0.0235
AGTTGGAT	0.0717
CGACATAC	0.193
GCAGGATA	-0.119
AGTTACAC	0.216
GACGGCAC	0.23
ATATAGAG	-0.0214
ACCTCCTA	-0.15
CAGAATCG	-0.00523
ATTCCCTC	-0.147
AAGCGGGT	-0.145
CCTTAAGA	-0.101
GAACAGAA	-0.00486
GTAAAGTA	0.255
CAAGTGTC	-0.138
AACCAGAG	0.0738
CCAATGTA	-0.222
GCACGACC	-0.226
GGTGTGAA	0.186
CGTTGCAG	0.0462
ACATTAGA	0.0463
CCTAATAG	0.016

Sequence	PBM E-score
GTGCTTTA	-0.00628
CACACATG	-0.0556
GAGAGCGA	-0.221
CCTTTGCC	-0.153
AATTCGTA	0.252
CCGGTTGC	-0.156
ACACCGTG	-0.0419
AATGGCGA	0.0462
TCGATAAA	0.273
CACTTTGG	-0.0142
CATCTAAG	0.0936
AGACCTAC	-0.227
AGGGGTTA	-0.27
GCCTTCAC	-0.0467
CAAATTGG	0.148
AAATGGGA	-0.182
GCGAAAAA	0.197
AGACGGCC	-0.214
CCTAGCTC	-0.26
TAATCGAA	0.162
GGTTTTAA	0.0844
AGACCCTG	-0.246
AACATGCA	0.0353
CCACTGCA	-0.0639
CAAGATGG	-0.225

Sequence	PBM E-score
GGCTTGAA	0.0432
CCAACCCG	-0.122
GCGAGTCC	-0.272
CTGTCGCC	-0.137
ATCGGGCC	-0.234
GAGCTCTA	-0.186
CGCCTGGA	-0.179
AATCAACA	0.262
CTTGAGCC	-0.137
ACGTAAGA	0.448
TAATTCAA	0.217
GACTCGAA	-0.0659
GATGGCGC	-0.012
CGTGGATC	-0.0825
ATAGGCAT	-0.0819
CTGTCAAA	0.119
GTCACACA	0.29
ACTACTAT	0.159
ACCATGGC	0.0177
AAAAGATA	0.224
CCATCCCG	-0.176
CTTATCCA	0.152
AACTCCTG	-0.202
AACCGATA	0.0122
TATCTCAA	0.257

Sequence	PBM E-score
GATTTGCA	0.0914
GGCAATAC	0.0548
CGAGACCG	-0.184
GCCTTCGA	-0.182
AGTGGAAA	0.0231
AAGCAGAC	-0.148
CTTCATAC	0.106
ATCAACAC	0.163
ACATCTAG	-0.0177
TCTAGACA	0.0583
CCGTGCGA	0.228
CTGAAAGA	0.169
GTAGCGTA	-0.101
AGTGTGCA	-0.0156
CAAGACGA	-0.119
ACGTTGAT	0.243
CTGGCGGC	-0.16
CATAGGTA	0.0562
ATTTGAGC	-0.0139
ACAGCCCA	-0.0152
CGATGCAA	-0.0639
CCGACCGG	-0.305
ATGACATA	0.45
ATTCGATG	0.105
ATCGCTCA	-0.121

Sequence	PBM E-score
CTGGTTTC	0.00333
ACCGAACT	-0.0144
AGCACAAC	0.0921
AAGGCTGA	-0.0825
AAATTGTG	0.021
AAGAACAC	0.167
CAGTGCAC	-0.228
ACCTGACC	0.0327
AAAAACAC	0.112
GACCCCAC	-0.0913
ATACTTTG	0.125
GGTCGTGA	-0.0244
GAGAACCC	-0.32
TCAATGGA	0.0863
CTCTTATA	0.163
AGATGCAG	-0.0156
AATTATCT	0.161
TCCCCAAA	0.119
CGATTGTC	0.104
CAAAAGCC	-0.0487
CTGATCGA	-0.0169
AATACAGC	0.0457
ACTTCATC	0.101
GAAGGTAC	-0.0696
AGGTCGTG	-0.0748

Sequence	PBM E-score
CCGCGGCG	0.156
CCAGTGAA	-0.0258
GACGCCTA	-0.177
CAAGACCC	-0.197
AAGACTCG	-0.0622
CAGCGCAG	-0.102
CACGCTGA	0.133
CAATGATA	0.268
ATTCTTCG	0.156
GAGGCCAC	-0.164
CGTGATAA	0.154
AGTTCACC	0.0267
GTTTGGTA	0.213
CCTCACAG	-0.0712
AAAGCCTT	-0.0208
CTGCATAA	0.0964
AGGTAATA	0.273
GTGGCCCA	-0.236
ATCCCTCG	-0.263
AGGCCACA	-0.183
CCGCCCCG	0.0604
ATAAAATA	0.286
AAACGTCC	-0.0706
GTGTTCGA	0.00046
CGTTTTCA	0.225

Sequence	PBM E-score
AATCTCAG	-0.111
GCTTCACA	-0.177
ACTTCTTG	0.0136
ATTATGAA	0.292
AGTCGCAT	-0.106
GCTCAAAC	0.0496
GCGAGCAC	-0.268
GATGTCGC	-0.0961
GATTGGGA	-0.139
CTCATACC	0.118
CGCTAGTA	-0.0677
CTGGTGGC	-0.0998
CCAGTACA	-0.058
AATTGGCA	0.0554
AGGGGTTC	-0.327
ATCTTGAC	0.0907
GGTCCAGA	-0.111
CGTGAATC	-0.01
AGGTGGAC	-0.235
GTTCCGCA	-0.0152
GAACGGTA	-0.00045
AACGTACG	0.00342
ACTGCCTG	-0.00529
ACGTGAAT	0.124
CGTCTACC	-0.0234

Sequence	PBM E-score
GCGGCTAC	0.0691
AAGTAGAT	0.0462
ACGATGCG	0.118
CGCTCACG	0.0482
ATTTTGCA	0.11
GACCGGCC	-0.202
AGCCGTAT	0.169
CCAGTGCC	-0.0416
ACGCAGCC	-0.0579
AAATTAGT	0.29
AAAAGCCG	0.0736
CCGCGCAC	-0.0524
AATCAAAA	0.125
CCCGCCGG	-0.269
CAATTAAC	0.166
ACGTAGTC	0.075
GAGGCAGA	-0.122
AACATTTA	0.155
AGCCATGA	0.0578
